Results as given in PubChem BioAssay AID651820 (National Center for Advancing Translational Sciences (NCATS), 2012).
Screen size: about 340,000 compounds; about 12,000 (3.5%) were called active. Inconclusive results, whose numbers are uncertain, are shown with a selection of clear calls. The call rests on the fitted dose curve; in most records, active means well fitted inhibition curve with a large enough effect; inconclusive means small, poorly fitted or top-dose-only effect, or another doubt; inactive means no such curve, though single readings can be large or run the other way. No potency is given beside an inconclusive call; the fits are too rough.

assay: qHTS Assay for Inhibitors of Hepatitis C Virus (HCV); settings: Huh7.5.1 HCVcc-Cre (HCVcc is cell-culture hepatitis C virus) infection, luciferase reporter, 44 h; series mostly up to 41.8 µM
Method in brief: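 Compounds are dispensed onto cells plated 4 h earlier at 1,000 per well, with HCVcc-Cre virus (about 0.5 moi) added next. Following 44 h of culture, luminescent signal is measured for 15 sec after 15 min with substrate at room temperature.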
Potency means the concentration at half of the fitted maximal effect; tags describe the fitted curve by direction and shape.

SMILES	Potency
O=C(Cc1ccc([N+](=O)[O-])cc1)Nc1cccc(C(F)(F)F)c1	inactive
CCOc1ccc(NC(=O)c2ccc(CC)s2)c([N+](=O)[O-])c1	inconclusive [inhibitor, full curve, poor fit]
COc1ccc2oc(C(=O)N3CCCc4ccccc43)c(C)c2c1	inconclusive [inhibitor, partial curve]
COc1ccccc1OCC(=O)N(Cc1nc(-c2ccc(Cl)cc2)no1)C(C)C	inconclusive [inhibitor, single point]
CC1CN=C(N(C(=O)Nc2ccccc2)c2ccc(F)cc2)S1 (stereo unspecified)	inactive
CCCCOC(=O)NS(=O)(=O)c1sc(CC(C)C)cc1-c1ccc(Cn2c(CC)nc3c(C)cc(C)nc32)cc1	active: 12.6 µM
Cc1ccc(-c2nnn3c2nc(NC(C)C)c2ccccc23)cc1	inconclusive [inhibitor, full curve]
COc1ccc(CCNC(=O)c2ccccc2OCc2ccccc2)cc1	inconclusive [inhibitor, partial curve]
CC(NC(=O)c1ccc(OC2CCN(C(=O)c3cccnc3)CC2)cc1)C1CC1 (stereo unspecified)	inactive
CN(CCCNC(=O)CSc1cc(=O)n(C)c2ccc(Cl)cc12)Cc1ccccc1	inconclusive [inhibitor, partial curve]
COc1ccccc1N1CCN(C(=O)c2c(-c3ccccc3)noc2C)CC1	inconclusive [inhibitor, full curve, poor fit]
O=S(=O)(/C=C/c1ccccc1)N1CCN(c2nc(-c3cccnc3)nc3ccccc23)CC1	inconclusive [inhibitor, single point]
CC(C)c1ccc(CN2CCN(C(=O)CSc3nnnn3C3CC3)CC2)cc1	active: 5.62 µM
CC(C)C(=O)NC(c1ccco1)c1ccc2cccnc2c1O (stereo unspecified)	active: 3.98 µM
CCc1ccc(NC(=O)c2cc(S(=O)(=O)N3CCc4ccccc43)cn2C)cc1	inconclusive [inhibitor, single point]
Cc1cc(C)cc(NC(=O)Cn2nnc3ccccc3c2=O)c1	inactive
COC(=O)c1sccc1NC(=O)CC1C(=O)NCCN1C(=O)c1ccc(C)c(C)c1 (stereo unspecified)	inactive
O=S(=O)(Nc1cccnc1Cl)c1ccc(F)cc1	inactive
Fc1ccc(-c2cc3nc(-c4ccccc4)cc(N4CCOCC4)n3n2)cc1	inconclusive [inhibitor, full curve, poor fit]
CCc1ccc(-n2c(SCC(=O)Nc3cccc(S(=O)(=O)NC4=NCCCCC4)c3)nc3ccccc3c2=O)cc1	inconclusive [inhibitor, partial curve, poor fit]
CCc1ccc(NC(=O)C2CCN(S(=O)(=O)c3c(C)noc3/C=C/N(C)C)CC2)cc1	inconclusive [inhibitor, single point]
CCCSc1ccc([C@@H]2[C@H]3C(=O)N(CC)C(=O)[C@H]3[C@]3(C(=O)OC)CCCCN23)cc1OC	inconclusive [inhibitor, single point]
COc1cc(NC(=O)c2cc(-c3ccc4c(c3)OCO4)on2)cc(OC)c1OC	inconclusive [inhibitor, full curve]
Cc1ccc2c(c1)nnn2C1CCN(S(=O)(=O)c2ccc(C(=O)N(C)C3CCCCC3)cc2)CC1	active: 12.6 µM

SMILES	Potency
COc1ccc(-c2cc(C)no2)cc1S(=O)(=O)NCc1ccc(OC(C)C)cc1	inactive
Cn1c(SCC(=O)NC2CCCC2)nc2cccnc21	inactive
Cc1ccc(CNC(=O)c2ccc(CS(=O)Cc3ccccc3Cl)o2)cc1 (stereo unspecified)	inconclusive [inhibitor, single point]
Cc1cc(C)nc(SCC(=O)N(C)CC(=O)Nc2c(Cl)cccc2Cl)n1	inactive
COc1cccc(C(=O)NC2CCCc3c2cnn3-c2ccc(C)c(C)c2)c1OC (stereo unspecified)	inconclusive [inhibitor, single point]
Cc1cccc(NC(=O)CCc2ccc(S(=O)(=O)NC3CCCCC3)cc2)c1	inactive
CCCCc1ccc(NC(=S)N2CCN(C)CC2)cc1	inactive
CCOc1ccccc1C=NNC(=O)C(=O)NN=Cc1ccccc1OCC	inactive
CC(CN1CCN(CC(C)C(=O)c2ccccc2)CC1)C(=O)c1ccccc1 (stereo unspecified)	inactive
COc1cccc(/C=N/n2c(=S)n(C)c3ccccc32)c1OC	inconclusive [inhibitor, single point]
COc1ccc(NS(=O)(=O)c2ccc(NS(=O)(=O)c3ccc(C)cc3)cc2)nn1	inconclusive [inhibitor, single point]
CC1CCCC(=NNC(=O)C2COc3ccccc3O2)C1 (stereo unspecified)	inconclusive [inhibitor, single point]
O=C(c1cccc(OC2CCN(C3CCCC3)CC2)c1)N1CCCCCCC1	inconclusive [inhibitor, single point]
CC(Cc1cccs1)NC(=O)Nc1ccc(Cl)c(Cl)c1 (stereo unspecified)	inconclusive [inhibitor, single point]
C=CCn1c(SCC(=O)NC2CCCC2)nc2c([nH]c3ccccc32)c1=O	inactive
CC1CCCN(C(=O)CN2CCC(c3nc4ccc(Cl)cc4[nH]3)CC2)C1 (stereo unspecified)	inconclusive [inhibitor, single point]
Cc1ccc(-c2cc(N)n3nc(-c4ccc(C)cc4)cc3n2)cc1	inactive
Cc1ccc2c(c1)C1CN(C)CCC1N2C(=O)c1cccc(S(=O)(=O)N2CC(C)CC(C)C2)c1 (stereo unspecified)	inactive
Cc1cc(Cl)ccc1NC(=S)NCc1ccc(Cl)cc1	inconclusive [inhibitor, single point]
CCOc1ccccc1OCCCC(=O)Nc1cc(S(=O)(=O)N2CCOCC2)ccc1OC	inconclusive [inhibitor, single point]
Cc1ccc(Nc2c(-c3ccc(N(C)C)cc3)nc3ncccn23)cc1	inactive
CCOC(=O)c1c(N2C(=O)CC(Sc3ccccc3C(=O)O)C2=O)sc(C)c1C (stereo unspecified)	inactive
C/C(=N\NC(=O)c1cc2ccccc2cc1O)c1cc2ccccc2o1	inconclusive [inhibitor, single point]
COc1ccc(N(C(=O)Cn2cnc3ccccc32)C(C(=O)NC2CCCCC2)c2ccccc2)cc1 (stereo unspecified)	inconclusive [inhibitor, single point]

SMILES	Potency
O=P(Cc1ccccc1)(c1ccccc1)c1ccccc1	inactive
O=C(C[n+]1cc(-c2ccccc2)n2c1CCC2)Nc1nc(-c2ccc(F)cc2)cs1	active: 0.708 µM
O=C(Nc1ccc(F)cc1)N(Cc1cccs1)Cc1cc2cc3c(cc2[nH]c1=O)OCO3	inconclusive [inhibitor, partial curve]
CCOc1ccc(CN2CCN(Cc3[nH]c4ccccc4c3C)CC2CCO)cc1 (stereo unspecified)	inconclusive [inhibitor, single point]
Cc1nn(C(C)C(=O)NCc2ccc(Cl)cc2)c(=O)c2cc3occc3n12 (stereo unspecified)	inconclusive [inhibitor, single point]
Cn1c2c(c(=O)n(C)c1=O)C(c1ccc(Br)cc1)Nc1ccccc1O2 (stereo unspecified)	inactive
O=C(NC1CC1)C1=C[C@H](C2CCCCC2)C[C@H](OCCCCO)O1	inactive
COc1cc(NC(=O)c2ccc(Cl)cc2)c(OC)cc1NC(=O)CN1CCOCC1	inactive
Cn1c(=O)c2[nH]c(COc3ccccc3)nc2n(C)c1=O	inconclusive [inhibitor, single point]
CC(=O)Nc1nc2c(ncn2COCCOC(C)=O)c(=O)[nH]1	inactive
CCOc1ccccc1NC(=O)CCc1nnc2ccc(N3CCC(C)CC3)nn12	inconclusive [inhibitor, partial curve]
N=c1n(CCO)c2ccccc2n1Cc1ccccc1Cl	active: 22.4 µM
Cc1nnc(N2CCCC(C(=O)NCc3cccc(F)c3)C2)c2nn(-c3ccccc3)c(C)c12 (stereo unspecified)	inconclusive [inhibitor, single point]
COc1ccc2[nH]c3c(c2c1)CCN1C(=O)C(CC(=O)NCc2ccc(OC)c(OC)c2)C[C@H](C(=O)N2CCOCC2)[C@@]31CCC1CCCC1 (stereo partly specified)	inconclusive [inhibitor, partial curve]
COc1ccc(N/C=C\C(=O)c2ccc3c(c2)OCO3)cc1OC	inactive
CCOCCCNC(=S)N1C2CCC1CC(NC(=O)NC13CC4CC(CC(C4)C1)C3)C2 (stereo unspecified)	inactive
Cc1ccccc1OCCSCc1nc2ccccc2[nH]1	inconclusive [inhibitor, single point]
c1ccc(Oc2ccc(-c3ccnc4nc(N5CCN(c6ccccc6)CC5)nn34)cc2)cc1	inconclusive [inhibitor, single point]
CCCNC(=O)c1ccc2c(=O)c(O)c(-c3ccc(F)cc3)[nH]c2c1	inconclusive [inhibitor, single point]
Fc1ccccc1-c1nc(-c2ccc(Br)o2)no1	inconclusive [inhibitor, single point]
Cc1cc2nc(NCCCO)n(CC(=O)c3cc(C(C)(C)C)c(O)c(C(C)(C)C)c3)c2cc1C	inconclusive [inhibitor, full curve]
CCOC(=O)N1CCN(C(=O)C2CCN(C(=O)c3ccc(C(C)(C)C)cc3)CC2)CC1	inactive
COc1cccc(/C=C/C(=O)Nc2cccc(C(C)=O)c2)c1OC	inconclusive [inhibitor, single point]
